According to PubChem BioAssay AID504832 (National Center for Advancing Translational Sciences (NCATS), 2011):
In all, about 310,000 compounds went through this assay and about 18,000 (5.8%) were called active. Inconclusive results, whose numbers are uncertain, are shown with a selection of clear calls. Calls come from the whole dose curve; as a rule, active = well fitted inhibition curve with a large enough effect; inconclusive = small, poorly fitted or top-dose-only effect, or another doubt; inactive = no such curve, though single readings can be large or run the other way. No potency is given beside an inconclusive call; the fits are too rough.

Assay: Primary qHTS for delayed death inhibitors of the malarial parasite plastid, 48 hour incubation
Settings: P. falciparum luciferase growth in erythrocytes; series mostly up to 28.7 µM; activity change, negative = inhibition: at the top concentration
Summary of the method: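 Here the parasites carry a stable luciferase gene and grow inside erythrocytes in Albumax-based RPMI medium with compound for one erythrocytic cycle. Activity is scored as loss of luminescent signal.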
% is set by controls: 0 for no effect and ±100 for the full control effect; potency is the fitted concentration of half-maximal effect; tags give direction and shape of the fitted curve.

| SMILES | activity change, negative = inhibition | Potency |
| --- | --- | --- |
| NS(=O)(=O)c1ccc(NC(=S)NC(=O)C2CCCC2)cc1 | inactive: -12.8% |  |
| CCCN(Cc1nnc(-c2ccccc2Cl)o1)C(=O)c1cccc(S(=O)(=O)N2CCOCC2)c1 |  | inconclusive [inhibitor, partial curve] |
| COc1ccc(Nc2cc(NCCCO)c([N+](=O)[O-])c3nonc23)cc1 |  | inconclusive [inhibitor, partial curve, poor fit] |
| Cc1ccc(NC(=S)N(CCCN2CCCC2)Cc2cccn2Cc2ccc(Cl)cc2)cc1 |  | inconclusive [inhibitor, full curve, poor fit] |
| O=C(CN1C2=NCCN2c2ccccc21)c1ccc(Br)s1 | inactive: -23.5% |  |
| CCOC(=O)c1c(S(=O)(=O)NCC(C)c2ccccc2)c(C)n(C)c1C (stereo not given) |  | inconclusive [inhibitor, partial curve] |
| CCC(C)[C@@H](N)C(=O)N/N=C/c1ccc2ncccc2c1 (stereo not given in full) |  | inconclusive [inhibitor, single point] |
| Cc1cccc(NC(=O)C(c2cccc([N+](=O)[O-])c2)N2CCCCC2)c1 (stereo not given) |  | inconclusive [inhibitor, single point] |
| CCOc1ccc(Br)cc1S(=O)(=O)N1CCCN(C)CC1 | inactive: -28.5% |  |
| CN1CCN(c2ccc(S(=O)(=O)N3CCCCC3)cc2NC(=O)CCc2ccccc2)CC1 |  | active: 9.28 µM |
| O=C(NCCc1nnc2ccc(NCc3ccccc3Cl)nn12)c1ccccc1 |  | inconclusive [inhibitor, partial curve, poor fit] |
| CC(C)(C)C#CC(CCc1ccccc1)OS(N)(=O)=O (stereo not given) |  | inconclusive [inhibitor, full curve, poor fit] |
| COc1ccc2c(c1)C(C)CC(C)(C)N2C(=O)Nc1ccccc1 (stereo not given) | inactive: 34.9% |  |
| Cc1cccc(-n2c(O)c(C=Nc3cccc(O)c3)c3ccccc3c2=O)n1 |  | inconclusive [inhibitor, single point] |
| Cn1cnc2c(=O)[nH]cc([N+](=O)[O-])c21 |  | inconclusive [inhibitor, full curve, poor fit] |
| COc1cc(C2SC(C)C(=O)N2CCc2ccccc2)cc(OC)c1OC (stereo not given) | inactive: -20.1% |  |
| COc1cc2nc(CN(C)Cc3ccc(C(C)(C)C)cc3)[nH]c(=O)c2cc1OC | inactive: -23.8% |  |
| Cc1cccc(NC(=O)c2cc([N+](=O)[O-])ccc2NC2CCCCC2)c1 |  | active: 8.28 µM |
| O=C(C1CCN(CC2CC=CCC2)CC1)N(CCc1ccccc1)Cc1ccccc1 (stereo not given) |  | inconclusive [inhibitor, single point] |
| COC(=O)Nc1nc2ccc(-c3n[nH]c(=O)c4ccccc34)cc2[nH]1 | inactive: 25.1% |  |
| CCn1c(SCc2ccc(Cl)c(Cl)c2)nnc1C(C)NC(=O)c1ccc(OC)cc1 (stereo not given) | inactive: -10.4% |  |
| Cc1cc(C)cc(NC(=O)CSc2ccc(-c3ccccn3)nn2)c1 |  | inconclusive [inhibitor, single point] |
| CCS(=O)(=O)c1ccc(-c2csc(-c3ccccc3)n2)c(Cl)c1Cl |  | inconclusive [inhibitor, single point] |
| CC(=O)N1CCN(c2ccc(NCc3cccc4ccccc34)cc2)CC1 |  | inconclusive [inhibitor, partial curve, poor fit] |

| SMILES | activity change, negative = inhibition | Potency |
| --- | --- | --- |
| O=[N+]([O-])c1cccc(-c2cn3ccccc3n2)c1 | inactive: -13.3% |  |
| O=C(O)CCNS(=O)(=O)c1ccc2c(c1)CCCC2 | inactive: 57.3% |  |
| C/C(=N\NC(=O)c1ccc(N/N=C(\C)c2ccncc2)cc1)c1ccncc1 | inactive: -3.55% |  |
| CC(C)(C)C(=O)Nc1nc2c(c(=O)[nH]1)CCCC2 |  | active: 9.28 µM |
| Cc1cc(-c2nn(-c3ccccc3F)cc2CN2CCN(c3ccccn3)CC2)c(C)s1 |  | inconclusive [inhibitor, single point] |
| CCCCCOC(=O)CC(C(=O)OCCCCC)N1CCCCC1 (stereo not given) |  | inconclusive [inhibitor, single point] |
| CCc1cccc(CC)c1-n1c(SCc2cc(=O)n3ccsc3n2)nnc1-c1cccnc1 |  | active: 14.7 µM |
| Cc1cccn2c(=O)c(/C=C3\SC(=S)NC3=O)c(NCCCN3CCOCC3)nc12 |  | active: 13.1 µM |
| O=C(/C=C/c1ccccc1)NC(N1CCOCC1)C(Cl)(Cl)Cl (stereo not given) | inactive: 53.3% |  |
| CCOC(=O)c1c(/N=C/c2ccc(OC)cc2O)sc2c1CCN(C)C2 |  | active: 10.4 µM |
| Cc1cc(C)nc(S/C=C/C(=O)c2ccccc2)n1 | inactive: 0% |  |
| COc1cccc(/C=C/C(=O)OCC(=O)c2c[nH]c3ccccc23)c1 |  | inconclusive [inhibitor, partial curve] |
| Cc1cc(C)nc(SCc2nc(N)nc(-c3ccccc3O)n2)n1 |  | inconclusive [inhibitor, single point] |
| C=CCC(NC(C)c1ccccc1)c1ccco1 (stereo not given) |  | inconclusive [inhibitor, single point] |
| Cc1ccccc1C(=O)N1CCN(c2ccc([N+](=O)[O-])c(NCc3cccnc3)c2)CC1 |  | inconclusive [inhibitor, partial curve] |
| CCc1c(C#N)c(N)nc(SCC(=O)OCc2ccccc2)c1C#N |  | active: 9.28 µM |
| O=C(/C=C/c1ccc(Cl)cc1)NC(=S)Nc1ccccc1C(=O)O | inactive: 0.661% |  |
| CCOC(=O)c1c(CSC(=N)N)n(-c2ccc(C)cc2)c2cc(Br)c(OC(C)=O)cc12 |  | active: 7.38 µM |
| CN1CCc2nc(SCC(=O)Nc3ccc(OC(F)(F)F)cc3)c(C#N)c(-c3cccs3)c2C1 | inactive: 0% |  |
| COc1cc(CNC(=O)CCCCCCC(C)C)ccc1O | inactive: -9.16% |  |
| CN(Cc1cccs1)c1nc(-c2cccnc2)nc2ccccc12 |  | inconclusive [inhibitor, single point] |
| CC1(C)C(=O)OC(c2cccn2-c2cccc([N+](=O)[O-])c2)C2(CCCCC2)C1=O (stereo not given) |  | active: 13.1 µM |
| COc1ccc(OC)c(-c2cc(C3CCN(c4cc(Cl)nc(N)n4)CC3)[nH]n2)c1 |  | inconclusive [inhibitor, partial curve] |
| COc1ccc(C(C(=O)NC(C)(C)C)N(C(=O)CCC(=O)Nc2cc(C)on2)c2ccccc2F)cc1 (stereo not given) |  | inconclusive [inhibitor, single point] |

| SMILES | activity change, negative = inhibition | Potency |
| --- | --- | --- |
| CN1CCN(c2cc(C(F)(F)F)nc3ccc(F)cc23)CC1 |  | inconclusive [inhibitor, partial curve] |
| N/C(Cc1cccc2ccccc12)=N\OC(=O)COc1ccccc1 | inactive: 6.21% |  |
| Cc1ccsc1C(C(=O)NC(C)(C)C)N(C(=O)c1csnn1)c1ccccc1 (stereo not given) |  | inconclusive [inhibitor, partial curve, poor fit] |
| CN(Cc1ccc(F)cc1)C(=O)c1cccc(S(=O)(=O)NCc2ccccc2)c1 |  | inconclusive [inhibitor, single point] |
| O=C(CC1CCCC1)Nc1cc(C(F)(F)F)ccc1-n1cncn1 |  | inconclusive [inhibitor, partial curve, poor fit] |
| Cc1ccc(S(=O)(=O)N2CC=C(C(=O)NCCC(C)C)CC2)cc1 |  | inconclusive [inhibitor, single point] |
| Cc1cc(Nc2ccc([N+](=O)[O-])cc2)nc2ccccc12 |  | inconclusive [inhibitor, full curve] |
| COc1ccc(S(=O)(=O)N2CCCCCC2)cc1NC(=O)CN1C(=O)NC(C)(c2ccc(C)cc2)C1=O (stereo not given) |  | inconclusive [inhibitor, partial curve, poor fit] |
| O=C1C=C(c2ccc(Cl)c(C(F)(F)F)c2)C[C@@H](c2ccc(Cl)cc2)C1 |  | inconclusive [inhibitor, single point] |
| CCCC(=O)N=C1SC2CS(=O)(=O)CC2N1c1ccc(CC)cc1 (stereo not given) |  | inconclusive [inhibitor, full curve, poor fit] |
| CN(C(=O)Oc1ccc(C(C)(C)C)cc1)c1ccccc1 |  | inconclusive [inhibitor, partial curve] |
| COc1ccc2oc(C(=O)N3CCN(S(=O)(=O)c4cccc([N+](=O)[O-])c4)CC3)c(C)c2c1 |  | inconclusive [inhibitor, partial curve, poor fit] |
| COc1ccc(NC(=S)N2CCc3ccccc32)cc1OC | inactive: -11.3% |  |
| C=C(C)CNC(=S)NNC(=O)CCn1c2cc(Cl)ccc2c2ccc(Cl)cc21 |  | active: 7.38 µM |
| Cc1ccc2cc(C)c(SCC(=O)Nc3ccc(S(=O)(=O)N4CCCC4)cc3)nc2c1 |  | inconclusive [inhibitor, partial curve] |
| CCCCN(CC)CCCNC(=O)c1cn(C)c2ccc(S(=O)(=O)N(C)C3CCCCC3)cc2c1=O |  | inconclusive [inhibitor, partial curve] |
| Cc1ccc(C2=NCCn3nc4cc(C(F)(F)F)ccc4c32)cc1 |  | inconclusive [inhibitor, single point] |
| Cc1cccc(C)c1NC(=O)CNC(=O)c1ccc(S(=O)(=O)NCc2ccco2)cc1 | inactive: -12.2% |  |
| COCC(C)n1c(C)cc(C(=O)COc2ccc(S(=O)(=O)N3CCOCC3)cc2Cl)c1C (stereo not given) |  | active: 13.1 µM |
| O=C(O)CC1(CC(=O)NCc2ccc(Cl)cc2)CCCCC1 | inactive: 24.6% |  |
| COc1ccc(NS(=O)(=O)c2cccc(C(=O)NCC(c3ccc(F)cc3)N3CCOCC3)c2)cc1 (stereo not given) |  | inconclusive [inhibitor, partial curve, poor fit] |
| COc1ccc(OC)c(-c2cc(C(F)(F)F)c3c(n2)sc2c(O)cc(=O)[nH]c23)c1 | inactive: -11.3% |  |
